# According to the supplement of paper PMC10037445:
# Whole data set: some 2,900 compounds, median “NF-kB SEAP reporter activity, fold change vs agonist alone” near 0.99, cut for the highest 2% near 2.6. The list shows a part of the results.
# Legend:
# [1] = system: RAW-Dual; test: NF-kB SEAP reporter activity, fold change vs agonist alone; cytotoxicity flag (confluency mask): not cytotoxic; higher = enhanced NF-kB activity
# How it was run: (§1)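 RAW-Dual macrophages were seeded in DMEM at 50,000 cells/well in 384-well plates, given 50 nL of library stock by pin tool, and given a PRR agonist 1 h later. Plates were held at 37 °C, 5% CO2 for 20 hours, after which supernatant was read for IRF by QuantiLuc luminescence and for NF-κB by QuantiBlue absorbance at 620 nm. Reporter activity is expressed as fold change over wells that received agonist alone. A well was called cytotoxic when IncuCyte confluency fell below 70% of agonist controls in both mask sets.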
# [2] = system: RAW-Dual; test: NF-kB SEAP reporter activity, fold change vs agonist alone; higher = enhanced NF-kB activity; details: library stock concentration (final ~1000-fold dilution): 10 mM
# How it was run: as §1
# [3] = system: RAW-Dual; test: NF-kB SEAP reporter activity, fold change vs agonist alone; cytotoxicity flag (confluency mask): cytotoxic (confluency <70% of control); higher = enhanced NF-kB activity
# How it was run: as §1
# [4] = agonist: ODN 1826 (TLR9) 0.5 ug/mL
# [5] = agonist: Pam2CSK4 (TLR2/6) 0.1 ug/mL
# [6] = agonist: Pam3CSK4 (TLR2/1) 0.1 ug/mL
# [7] = cytotoxicity flag (confluency mask): not cytotoxic, agonist: Imiquimod (TLR7) […]
# [8] = cytotoxicity flag (confluency mask): not cytotoxic, agonist: MPLA (TLR4) […]
# [9] = cytotoxicity flag (confluency mask): cytotoxic (confluency <70% of control), agonist: MPLA (TLR4) […]
compound,measurement,setting,value
c1ccc(Cn2c(-c3ccc(OCC(C4CCNCC4)n4c(-c5ccccc5)nc5ccccc54)cc3)nc3ccccc32)cc1 (configuration not stated) (library stock concentration (final ~1000-fold dilution): 10 mM),NF-kB SEAP reporter activity,[1]; agonist: LPS (TLR4) 0.1 ug/mL,0.204
same,NF-kB SEAP reporter activity,[1]; [4],0.181
same,NF-kB SEAP reporter activity,[1]; [5],0.0667
same,NF-kB SEAP reporter activity,[1]; [6],0.138
c1ccc(Cn2c(-c3ccc(OCC(C4CCNCC4)n4c(-c5ccccc5)nc5ccccc54)cc3)nc3ccccc32)cc1 (configuration not stated),NF-kB SEAP reporter activity,[2]; [7],0.157
same,NF-kB SEAP reporter activity,[2]; [8],0.247
CCOC(=O)c1ccc(N2NC(=O)/C(=C/c3ccc([N+](=O)[O-])o3)C2=O)cc1 (library stock concentration (final ~1000-fold dilution): 10 mM),NF-kB SEAP reporter activity,[1]; agonist: LPS (TLR4) 0.1 ug/mL,0.275
same,NF-kB SEAP reporter activity,[1]; [4],1.38
same,NF-kB SEAP reporter activity,[1]; [5],0.609
same,NF-kB SEAP reporter activity,[1]; [6],0.528
CCOC(=O)c1ccc(N2NC(=O)/C(=C/c3ccc([N+](=O)[O-])o3)C2=O)cc1,NF-kB SEAP reporter activity,[2]; [7],1.13
same,NF-kB SEAP reporter activity,[2]; [8],1.08
O=C(O)c1ccc(N2C(=O)/C(=C/c3ccc(-c4ccc([N+](=O)[O-])cc4)o3)C=C2c2ccccc2)cc1,NF-kB SEAP reporter activity,[2]; [7],0.786
same,NF-kB SEAP reporter activity,[2]; [8],0.817
O=C(O)c1ccc(N2C(=O)/C(=C/c3ccc(-c4ccc([N+](=O)[O-])cc4)o3)C=C2c2ccccc2)cc1 (library stock concentration (final ~1000-fold dilution): 10 mM),NF-kB SEAP reporter activity,[1]; agonist: LPS (TLR4) 0.1 ug/mL,0.932
same,NF-kB SEAP reporter activity,[1]; [4],0.719
same,NF-kB SEAP reporter activity,[1]; [5],0.387
same,NF-kB SEAP reporter activity,[1]; [6],0.213
Cc1ccc(C(=O)N(CCCN)C(c2nc3cc(Cl)ccc3c(=O)n2Cc2ccccc2)C(C)C)cc1 (configuration not stated) (library stock concentration (final ~1000-fold dilution): 10 mM),NF-kB SEAP reporter activity,[3]; agonist: LPS (TLR4) 0.1 ug/mL,0.331
same,NF-kB SEAP reporter activity,[3]; [4],0.254
same,NF-kB SEAP reporter activity,[3]; [5],0.0886
same,NF-kB SEAP reporter activity,[3]; [6],0.27
Cc1ccc(C(=O)N(CCCN)C(c2nc3cc(Cl)ccc3c(=O)n2Cc2ccccc2)C(C)C)cc1 (configuration not stated),NF-kB SEAP reporter activity,"[2]; cytotoxicity flag (confluency mask): cytotoxic (confluency <70% of control), agonist: Imiquimod (TLR7) […]",1.41
same,NF-kB SEAP reporter activity,[2]; [9],0.878
COc1cc(C(=O)N(CCCc2ccccc2)Cc2ccc(CC(=O)O)cc2)cc(OC)c1C,NF-kB SEAP reporter activity,[2]; [7],1.1
same,NF-kB SEAP reporter activity,[2]; [8],1.11
COc1cc(C(=O)N(CCCc2ccccc2)Cc2ccc(CC(=O)O)cc2)cc(OC)c1C (library stock concentration (final ~1000-fold dilution): 10 mM),NF-kB SEAP reporter activity,[1]; agonist: LPS (TLR4) 0.1 ug/mL,1.19
same,NF-kB SEAP reporter activity,[1]; [4],0.976
same,NF-kB SEAP reporter activity,[1]; [5],0.823
same,NF-kB SEAP reporter activity,[1]; [6],0.908
O=C(O)c1cc(O)c2ccccc2n1 (library stock concentration (final ~1000-fold dilution): 10 mM),NF-kB SEAP reporter activity,[1]; agonist: LPS (TLR4) 0.1 ug/mL,0.956
same,NF-kB SEAP reporter activity,[1]; [4],1
same,NF-kB SEAP reporter activity,[1]; [5],1.08
same,NF-kB SEAP reporter activity,[1]; [6],1.18
O=C(O)c1cc(O)c2ccccc2n1,NF-kB SEAP reporter activity,[2]; [8],1.1
CCc1ccc(CCOc2ccc(CC3SC(=O)NC3=O)cc2)nc1.Cl (configuration not stated),NF-kB SEAP reporter activity,[2]; [7],2.15
same,NF-kB SEAP reporter activity,[2]; [8],1.76
CCc1ccc(CCOc2ccc(CC3SC(=O)NC3=O)cc2)nc1.Cl (configuration not stated) (library stock concentration (final ~1000-fold dilution): 10 mM),NF-kB SEAP reporter activity,[1]; agonist: LPS (TLR4) 0.1 ug/mL,1.03
same,NF-kB SEAP reporter activity,[1]; [4],1.59
same,NF-kB SEAP reporter activity,[1]; [5],1.07
same,NF-kB SEAP reporter activity,[1]; [6],1.37
O=C(NNS(=O)(=O)c1ccccc1F)c1cc(F)cc(-c2ccccn2)c1,NF-kB SEAP reporter activity,[2]; [7],0.918
same,NF-kB SEAP reporter activity,[2]; [8],1.3
O=C(NNS(=O)(=O)c1ccccc1F)c1cc(F)cc(-c2ccccn2)c1 (library stock concentration (final ~1000-fold dilution): 10 mM),NF-kB SEAP reporter activity,[1]; agonist: LPS (TLR4) 0.1 ug/mL,1.23
same,NF-kB SEAP reporter activity,[1]; [4],1.2
same,NF-kB SEAP reporter activity,[1]; [5],1.21
same,NF-kB SEAP reporter activity,[1]; [6],1.12
CN(CC(=O)N(Cc1ccc(C2CCCCC2)cc1)c1ccc(C(=O)NO)cc1)S(=O)(=O)c1c(F)c(F)c(F)c(F)c1F,NF-kB SEAP reporter activity,[2]; [7],1.3
same,NF-kB SEAP reporter activity,[2]; [8],1.02
CN(CC(=O)N(Cc1ccc(C2CCCCC2)cc1)c1ccc(C(=O)NO)cc1)S(=O)(=O)c1c(F)c(F)c(F)c(F)c1F (library stock concentration (final ~1000-fold dilution): 10 mM),NF-kB SEAP reporter activity,[1]; agonist: LPS (TLR4) 0.1 ug/mL,0.324
same,NF-kB SEAP reporter activity,[1]; [4],1.53
same,NF-kB SEAP reporter activity,[1]; [5],0.374
same,NF-kB SEAP reporter activity,[1]; [6],0.284
O=C1CCc2c(ccc3ccccc23)O1 (library stock concentration (final ~1000-fold dilution): 10 mM),NF-kB SEAP reporter activity,[1]; agonist: LPS (TLR4) 0.1 ug/mL,0.939
same,NF-kB SEAP reporter activity,[1]; [4],1.03
same,NF-kB SEAP reporter activity,[1]; [5],1.06
same,NF-kB SEAP reporter activity,[1]; [6],0.968
O=C1CCc2c(ccc3ccccc23)O1,NF-kB SEAP reporter activity,[2]; [7],0.981
same,NF-kB SEAP reporter activity,[2]; [8],1.04
C[C@@H]1O[C@@H](O[C@@H]2C(=O)c3c(O)cc(O)cc3O[C@H]2c2ccc(O)c(O)c2)[C@H](O)[C@H](O)[C@H]1O,NF-kB SEAP reporter activity,[2]; [7],0.982
same,NF-kB SEAP reporter activity,[2]; [8],1.02
C[C@@H]1O[C@@H](O[C@@H]2C(=O)c3c(O)cc(O)cc3O[C@H]2c2ccc(O)c(O)c2)[C@H](O)[C@H](O)[C@H]1O (library stock concentration (final ~1000-fold dilution): 10 mM),NF-kB SEAP reporter activity,[1]; agonist: LPS (TLR4) 0.1 ug/mL,1.31
same,NF-kB SEAP reporter activity,[1]; [4],1.15
same,NF-kB SEAP reporter activity,[1]; [5],1.19
same,NF-kB SEAP reporter activity,[1]; [6],1.01
Cc1c(OCC(F)(F)F)ccnc1C[S+]([O-])c1nc2ccccc2[nH]1 (configuration not stated),NF-kB SEAP reporter activity,[2]; [7],1.02
same,NF-kB SEAP reporter activity,[2]; [8],0.964
Cc1c(OCC(F)(F)F)ccnc1C[S+]([O-])c1nc2ccccc2[nH]1 (configuration not stated) (library stock concentration (final ~1000-fold dilution): 10 mM),NF-kB SEAP reporter activity,[1]; agonist: LPS (TLR4) 0.1 ug/mL,0.783
same,NF-kB SEAP reporter activity,[1]; [4],1.13
same,NF-kB SEAP reporter activity,[1]; [5],0.958
same,NF-kB SEAP reporter activity,[1]; [6],1
CC(O)COCC1OC2OC3C(COCC(C)O)OC(OC4C(COCC(C)O)OC(OC5C(COCC(C)O)OC(OC6C(COCC(C)O)OC(OC7C(COCC(C)O)OC(OC8C(COCC(C)O)OC(OC1C(O)C2O)C(O)C8O)C(O)C7O)C(O)C6O)C(O)C5O)C(O)C4O)C(O)C3O (configuration not stated),NF-kB SEAP reporter activity,[2]; [8],1.1
CC(O)COCC1OC2OC3C(COCC(C)O)OC(OC4C(COCC(C)O)OC(OC5C(COCC(C)O)OC(OC6C(COCC(C)O)OC(OC7C(COCC(C)O)OC(OC8C(COCC(C)O)OC(OC1C(O)C2O)C(O)C8O)C(O)C7O)C(O)C6O)C(O)C5O)C(O)C4O)C(O)C3O (configuration not stated) (library stock concentration (final ~1000-fold dilution): 10 mM),NF-kB SEAP reporter activity,[1]; agonist: LPS (TLR4) 0.1 ug/mL,1.3
same,NF-kB SEAP reporter activity,[1]; [4],0.982
same,NF-kB SEAP reporter activity,[1]; [5],1.22
same,NF-kB SEAP reporter activity,[1]; [6],0.794
COc1cc2c(Oc3ccc4[nH]c(C)cc4c3F)ncnc2cc1OCCCN1CCCC1.O=C(O)/C=C\C(=O)O,NF-kB SEAP reporter activity,[2]; [9],2.65
COc1cc2c(Oc3ccc4[nH]c(C)cc4c3F)ncnc2cc1OCCCN1CCCC1.O=C(O)/C=C\C(=O)O (library stock concentration (final ~1000-fold dilution): 10 mM),NF-kB SEAP reporter activity,[3]; agonist: LPS (TLR4) 0.1 ug/mL,2.81
same,NF-kB SEAP reporter activity,[3]; [4],0.402
same,NF-kB SEAP reporter activity,[3]; [5],1.61
same,NF-kB SEAP reporter activity,[3]; [6],1.15
CCCC(NC(=O)C1C2CCCC2CN1C(=O)C(NC(=O)C(NC(=O)c1cnccn1)C1CCCCC1)C(C)(C)C)C(=O)C(=O)NC1CC1 (configuration not stated) (library stock concentration (final ~1000-fold dilution): 10 mM),NF-kB SEAP reporter activity,[1]; agonist: LPS (TLR4) 0.1 ug/mL,1.3
same,NF-kB SEAP reporter activity,[1]; [4],0.887
same,NF-kB SEAP reporter activity,[1]; [5],0.68
same,NF-kB SEAP reporter activity,[1]; [6],0.601
CCCC(NC(=O)C1C2CCCC2CN1C(=O)C(NC(=O)C(NC(=O)c1cnccn1)C1CCCCC1)C(C)(C)C)C(=O)C(=O)NC1CC1 (configuration not stated),NF-kB SEAP reporter activity,[2]; [7],0.65
same,NF-kB SEAP reporter activity,[2]; [8],1.02
